# The list shows a part of the results.
# What was measured:
# Assay in all cases: glycan array binding signal (z-score within array); higher = stronger binding
# Conditions in all cases: glycan notation: IUPAC condensed, linker removed
# Fuc(a1-2)Gal = molecular target: Fuc(a1-2)Gal
# How it was run: (§1)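 From the Consortium for Functional Glycomics database, 3228 arrays were curated, keeping only those whose protein sequence was available. Binding is given as a within-array Z-score averaged across arrays sharing a protein sequence and across linkers. Negative Z-scores can be read as non-binding.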
# Fuc(a1-2)Gal(b1-3)GalNAc = molecular target: Fuc(a1-2)Gal(b1-3)GalNAc
# How it was run: as §1
# [1] = molecular target: Fuc(a1-2)Gal(b1-3)GalNAc(b1-3)Gal
# How it was run: as §1
# [2] = molecular target: Fuc(a1-2)Gal(b1-3)GalNAc(b1-3)Gal(a1-4)Gal(b1-4)Glc
# How it was run: as §1
# [3] = molecular target: Fuc(a1-2)Gal(b1-3)GalNAc(b1-4)[Neu5Ac(a2-3)]Gal(b1-4)Glc
# How it was run: as §1
# Fuc(a1-2)Gal(b1-3)GlcNAc = molecular target: Fuc(a1-2)Gal(b1-3)GlcNAc
# How it was run: as §1
# [4] = molecular target: Fuc(a1-2)Gal(b1-3)GlcNAc(b1-3)Gal(b1-4)Glc
# How it was run: as §1
# [5] = molecular target: Fuc(a1-2)Gal(b1-3)[Fuc(a1-4)]GlcNAc
# How it was run: as §1
# Fuc(a1-2)Gal(b1-4)Glc = molecular target: Fuc(a1-2)Gal(b1-4)Glc
# How it was run: as §1
# Fuc(a1-2)Gal(b1-4)Glc6S = molecular target: Fuc(a1-2)Gal(b1-4)Glc6S
# How it was run: as §1
# Fuc(a1-2)Gal(b1-4)GlcNAc = molecular target: Fuc(a1-2)Gal(b1-4)GlcNAc
# How it was run: as §1
# [6] = molecular target: Fuc(a1-2)Gal(b1-4)GlcNAc(b1-3)Gal(b1-4)GlcNAc
# How it was run: as §1
# [7] = molecular target: Fuc(a1-2)Gal(b1-4)GlcNAc(b1-3)Gal(b1-4)GlcNAc(b1-3)Gal(b1-4)GlcNAc
# How it was run: as §1
# [8] = molecular target: Fuc(a1-2)Gal(b1-4)GlcNAc6S
# How it was run: as §1
# [9] = molecular target: Fuc(a1-2)Gal(b1-4)[Fuc(a1-3)]GlcNAc
# How it was run: as §1
# [10] = molecular target: Fuc(a1-2)Gal(b1-4)[Fuc(a1-3)]GlcNAc(b1-3)Gal(b1-4)[Fuc(a1-3)]GlcNAc
# How it was run: as §1
# [11] = molecular target: Fuc(a1-2)Gal(b1-4)[Fuc(a1-3)]GlcNAc(b1-3)Gal(b1-4)[Fuc(a1-3)]GlcNAc(b1-3)Gal(b1-4)[Fuc(a1-3)]GlcNAc
# How it was run: as §1
# Fuc(a1-2)Gal6S(b1-4)Glc = molecular target: Fuc(a1-2)Gal6S(b1-4)Glc
# How it was run: as §1
# [12] = molecular target: Fuc(a1-2)Gal6S(b1-4)Glc6S
# How it was run: as §1
# [13] = molecular target: Fuc(a1-2)Gal6S(b1-4)GlcNAc
# How it was run: as §1
# Fuc(a1-2)[Gal(a1-3)]Gal = molecular target: Fuc(a1-2)[Gal(a1-3)]Gal
# How it was run: as §1
# [14] = molecular target: Fuc(a1-2)[Gal(a1-3)]Gal(b1-3)GlcNAc
# How it was run: as §1
# [15] = molecular target: Fuc(a1-2)[Gal(a1-3)]Gal(b1-4)Glc
# How it was run: as §1
# [16] = molecular target: Fuc(a1-2)[Gal(a1-3)]Gal(b1-4)GlcNAc
# How it was run: as §1
# [17] = molecular target: Fuc(a1-2)[Gal(a1-3)]Gal(b1-4)[Fuc(a1-3)]GlcNAc
# How it was run: as §1
# [18] = molecular target: Fuc(a1-2)[Gal(a1-4)]Gal(b1-4)GlcNAc
# How it was run: as §1
# [19] = molecular target: Fuc(a1-2)[GalNAc(a1-3)]Gal
# How it was run: as §1
# [20] = molecular target: Fuc(a1-2)[GalNAc(a1-3)]Gal(b1-3)GlcNAc
# How it was run: as §1
# [21] = molecular target: Fuc(a1-2)[GalNAc(a1-3)]Gal(b1-4)Glc
# How it was run: as §1
# [22] = molecular target: Fuc(a1-2)[GalNAc(a1-3)]Gal(b1-4)GlcNAc
# How it was run: as §1
binder,measurement,setting,value
"SLR2P3F12 (Tachypleus tridentatus), TAL2_TACTR (protein) MEKGTPPTHDSDNWMGRAKKIGNGGWNQFQFLFFDPNGYLYAVSKDKLYKASPPQSDTDNWIARATEIGSGGWSGFKSLFFHPNGYLYAVHGQRLYKALPPVSNQD",glycan array binding signal (z-score),Fuc(a1-2)Gal,-0.16
same,glycan array binding signal (z-score),Fuc(a1-2)Gal(b1-3)GalNAc,-0.372
same,glycan array binding signal (z-score),[1],0.673
same,glycan array binding signal (z-score),[2],-0.287
same,glycan array binding signal (z-score),[3],-0.195
same,glycan array binding signal (z-score),Fuc(a1-2)Gal(b1-3)GlcNAc,-0.047
same,glycan array binding signal (z-score),[4],-0.057
same,glycan array binding signal (z-score),[5],-0.226
same,glycan array binding signal (z-score),Fuc(a1-2)Gal(b1-4)Glc,0.802
same,glycan array binding signal (z-score),Fuc(a1-2)Gal(b1-4)Glc6S,-0.273
same,glycan array binding signal (z-score),Fuc(a1-2)Gal(b1-4)GlcNAc,-0.323
same,glycan array binding signal (z-score),[6],-0.352
same,glycan array binding signal (z-score),[7],-0.221
same,glycan array binding signal (z-score),[8],-0.447
same,glycan array binding signal (z-score),[9],-0.181
same,glycan array binding signal (z-score),[10],1.09
same,glycan array binding signal (z-score),[11],-0.179
same,glycan array binding signal (z-score),Fuc(a1-2)Gal6S(b1-4)Glc,-0.39
same,glycan array binding signal (z-score),[12],-0.343
same,glycan array binding signal (z-score),[13],0.264
same,glycan array binding signal (z-score),Fuc(a1-2)[Gal(a1-3)]Gal,-0.372
same,glycan array binding signal (z-score),[14],-0.248
same,glycan array binding signal (z-score),[15],-0.321
same,glycan array binding signal (z-score),[16],-0.417
same,glycan array binding signal (z-score),[17],-0.185
same,glycan array binding signal (z-score),[18],0.185
same,glycan array binding signal (z-score),[19],-0.104
same,glycan array binding signal (z-score),[20],0.556
same,glycan array binding signal (z-score),[21],-0.365
same,glycan array binding signal (z-score),[22],-0.352

# Source: the supplement of paper PMC8728848
